Assay results taken from PMC9637814.
These are yes or no findings as the source states them, for the method shown. For some of these results: Binding seen in cells or lysates may run through a third protein. Some results given as binding are weak or reduced against the parent protein; the word gives no strength. For some of these results: Tags and fused reporters may be left off the sequences shown. Values belong to the substance of their own block, whether it stands above or below them.

By UniProt entry, the sequences of proteins in these tests, tags left out. Where a name states a change or a piece, a line headed by the entry shows the natural chain unless it says otherwise.
UniProt P14618: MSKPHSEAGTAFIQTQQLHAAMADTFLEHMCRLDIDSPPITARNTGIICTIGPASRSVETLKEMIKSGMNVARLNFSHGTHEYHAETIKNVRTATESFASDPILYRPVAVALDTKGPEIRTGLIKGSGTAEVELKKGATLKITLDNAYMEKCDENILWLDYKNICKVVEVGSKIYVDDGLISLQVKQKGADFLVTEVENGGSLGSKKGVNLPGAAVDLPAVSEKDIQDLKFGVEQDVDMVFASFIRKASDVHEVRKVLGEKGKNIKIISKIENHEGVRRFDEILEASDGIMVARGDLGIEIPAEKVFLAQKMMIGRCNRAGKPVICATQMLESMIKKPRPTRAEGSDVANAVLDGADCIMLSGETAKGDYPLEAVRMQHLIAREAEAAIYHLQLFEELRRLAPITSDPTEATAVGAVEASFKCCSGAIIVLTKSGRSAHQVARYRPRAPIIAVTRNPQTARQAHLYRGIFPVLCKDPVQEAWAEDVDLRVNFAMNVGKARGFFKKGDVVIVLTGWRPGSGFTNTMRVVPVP

Assays:
[1] = molecular target: T1, Flag-Aurora A (293T) (human) (UniProt O14965); assay: co-IP; 293T cells cotransfected with Flag-tagged and HA-tagged protein, lysed in 50 mM Tris-HCl pH 7.4, 250 mM NaCl, 1 mM EDTA, 50 mM NaF, 0.5% Triton X-100; anti-Flag M2 resin, immunoblot
T1 sequence: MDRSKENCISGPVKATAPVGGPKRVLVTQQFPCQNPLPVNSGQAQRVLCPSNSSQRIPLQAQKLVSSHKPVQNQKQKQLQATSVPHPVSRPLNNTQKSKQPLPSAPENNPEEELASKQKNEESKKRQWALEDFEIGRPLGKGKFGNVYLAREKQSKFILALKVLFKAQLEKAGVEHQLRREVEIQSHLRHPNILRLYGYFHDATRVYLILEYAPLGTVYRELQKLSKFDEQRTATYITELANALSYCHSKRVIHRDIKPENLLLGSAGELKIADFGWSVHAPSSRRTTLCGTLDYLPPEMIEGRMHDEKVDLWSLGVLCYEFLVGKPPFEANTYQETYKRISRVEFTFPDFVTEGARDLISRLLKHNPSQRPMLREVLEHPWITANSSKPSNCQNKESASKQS

[2] = molecular target: T2, Flag-Aurora A (H1299) (human) (UniProt O14965); assay: co-IP; Flag-Aurora A and HA-PKM2 coexpressed in H1299 cells, with or without serine/glycine starvation for 24 h; extracts incubated with Flag beads, immunoblot
T2 sequence: T1 sequence

[3] = molecular target: T3, Aurora A (human (endogenous in H1299)) (UniProt O14965); assay: proximity ligation; fixed H1299 cells, Aurora A and PKM2 antibodies, interphase cells (G1, S, G2 by DAPI and PCNA); with or without serine/glycine starvation for 24 h; PKM knock-down as control
T3 sequence: T1 sequence

[4] = molecular target: T3, Aurora A (human (endogenous in H1299)); assay: co-IP; endogenous proteins in H1299 cell extracts, precipitated with Aurora A or PKM2 antibody, immunoblot
[5] = molecular target: T3, Aurora A (human (endogenous in H1299)); assay: proximity ligation; fixed H1299 cells, Aurora A and PKM2 antibodies, cells in mitosis
GST-Aurora A (human) = molecular target: T4, GST-Aurora A (human) (UniProt O14965); assay: pull-down; GST-tagged protein on resin incubated with purified His-PKM2 for 2 h at 4 °C, eluted with 10 mM GSH in 50 mM Tris pH 8.0, immunoblot; both purified
T4 sequence: T1 sequence

Substance: HA-PKM2 (293T) (from UniProt P14618 1-531)
- binding [1]: binds

Substance: HA-PKM2 (H1299) (from UniProt P14618 1-531)
- binding [2]: binds

Substance: HA-PKM2 K433E mutant (from UniProt P14618 1-531)
- binding [1]: no binding

Second part, the substance after the results:

- binding [3]: binds
- binding [4]: binds
- binding [5]: no binding (condition: cells in mitosis)
Substance: pyruvate kinase M2 (PKM2) (from UniProt P14618 1-531)

- binding (GST-Aurora A (human)): no binding
Substance: His-PKM2 K433E mutant (from UniProt P14618 1-531)
